Results taken from PubChem BioAssay AID624330 (Southern Research Specialized Biocontainment Screening …, 2012).
Out of some 340,000 compounds screened, about 2,100 (0.62%) were called active. This list was built around the results that the source calls inconclusive (neither active nor inactive); the mix of calls is not that of the screen.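 How the source made its calls: active means first-screen hits whose inhibition reached a set limit at any dose in the follow-up dose series; inconclusive means inhibition above the set first-screen limit but never retested; inactive means the rest.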

What follows are compounds tested against Rac GTPase-activating protein 1 (Homo sapiens) (UniProt Q9H0H5) (assay: blockers of MgcRacGAP-driven Rac1 GTP hydrolysis – biochemical, ADP Hunter fluorescence, primary and confirmatory, confirmation (AID 624330;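 further: fluorescence reports GDP produced by GAP-driven GTP hydrolysis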)). Conditions: MgcRacGAP-stimulated Rac1 GTP hydrolysis, at 30 µM, stronger effect = higher value, GST-tagged Rac1 F28L mutant substrate.
Sequence of UniProt Q9H0H5 (Q9H0H5 whole entry, looked up): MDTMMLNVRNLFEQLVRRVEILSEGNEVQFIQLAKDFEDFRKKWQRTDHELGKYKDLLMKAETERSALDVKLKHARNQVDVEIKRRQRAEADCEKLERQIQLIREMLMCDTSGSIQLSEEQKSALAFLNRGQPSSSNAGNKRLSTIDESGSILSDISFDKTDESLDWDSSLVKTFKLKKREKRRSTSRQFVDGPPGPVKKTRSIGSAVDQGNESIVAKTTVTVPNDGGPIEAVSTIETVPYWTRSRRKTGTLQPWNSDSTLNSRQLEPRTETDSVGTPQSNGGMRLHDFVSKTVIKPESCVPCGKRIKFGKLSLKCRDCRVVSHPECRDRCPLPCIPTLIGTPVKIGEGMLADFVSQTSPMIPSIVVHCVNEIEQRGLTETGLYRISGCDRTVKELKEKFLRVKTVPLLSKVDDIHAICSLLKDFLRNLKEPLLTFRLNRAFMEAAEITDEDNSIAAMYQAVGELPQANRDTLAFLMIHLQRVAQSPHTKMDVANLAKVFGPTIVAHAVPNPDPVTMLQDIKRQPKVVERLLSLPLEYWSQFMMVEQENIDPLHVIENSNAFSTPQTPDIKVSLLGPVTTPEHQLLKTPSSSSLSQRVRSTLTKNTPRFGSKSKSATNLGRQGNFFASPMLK

SMILES	inhibition
CCN(CC)c1ccc(NC(=O)c2ccc(Br)o2)c(C)c1	inconclusive: 35.1%
O=C(C1CCN(Cc2cccs2)CC1)N1CCN(Cc2ccc3c(c2)OCO3)CC1	inconclusive: 34.9%
CN1CCC(=O)N([C@H](CO)c2ccccc2)CC1	inconclusive: 56.6%
O=C(O)C(C(=O)/C=C/c1ccco1)=C1SCCS1	inconclusive: 32.7%
CC(=O)Nc1ccc(S(=O)(=O)NC(C)C(=O)OCC(=O)Nc2ccc(F)cc2Cl)cc1 (configuration not stated)	inactive: 4.68%
CCN(CC)c1ccc(NC(=O)C(C)C)cc1	inconclusive: 47%
C=C(C)C1CC=C(CN2CC(C)OC(C)C2)CC1 (configuration not stated)	inconclusive: 34.1%
COc1ccc(OC)c2[nH]c(=O)c(CCNC(=O)c3ccc(Br)o3)cc12	inconclusive: 12.6%
CCn1c2ccccc2c2cc(CN3CCN(C(=O)c4ccco4)CC3)ccc21	inconclusive: 33%
CCN(CC)c1ccc(NC(=O)c2ccco2)c(C)c1	inconclusive: 50%
CN(C)c1ccc(NC(=O)c2ccc(Cn3cc([N+](=O)[O-])cn3)cc2)cc1	inconclusive: 66.7%
CN(C)c1ccc(NC(=O)COC(=O)c2cc(Cl)ccc2[N+](=O)[O-])cc1	inconclusive: 50.8%
O=C(COC(=O)/C=C/c1cccc(C(F)(F)F)c1)NC(c1ccccc1)c1ccccc1	inactive: -0.08%
CCC(=O)N(CCc1ccccc1)Cc1cc2cc3c(cc2[nH]c1=O)OCO3	inactive: 8.92%
CCN(CC)S(=O)(=O)c1ccc(N2CCOCC2)c(NC(=O)CNCCc2ccccc2)c1	inconclusive: 33.3%
Oc1ccc(N2CCN(Cc3c(-c4ccccc4)nc4ccccn34)CC2)cc1	inconclusive: 32.1%
O=C(O)CCCCCn1c(SCC(=O)c2ccc(O)c(O)c2)nc2ccsc2c1=O	inconclusive: 63.5%
CC1Cc2ccccc2N1C(=O)CN1CCCCC1 (configuration not stated)	inactive: 2.91%
COc1cc(Cn2cnnn2)ccc1O	inconclusive: 46.3%
CC(=O)c1cccc(OC(=O)C2=CC=CN3CCS(=O)(=O)N=C23)c1	inactive: 7.32%
c1ccc(CSc2nnc(-c3ccco3)c(-c3ccco3)n2)cc1	inconclusive: 43.2%
C#CCOCCOCCOCCNc1nc(N2CCN(C(=O)[C@H](CCC(=O)O)n3cc([C@@H](N)CCCCN)nn3)CC2)nc(N2CCN(C(=O)[C@H](CCC(=O)O)n3cc([C@@H](N)CCCCN)nn3)CC2)n1	inactive: 3.63%
Oc1ccc(Nc2nc(-c3ccc(O)cc3)cs2)cc1	inconclusive: 80.8%

SMILES	inhibition
CCN(CC)c1ccc(NC(=O)COC(=O)CSc2ccc(Br)cc2C)cc1	inactive: 7.43%
CCN1CCCC1CNC(=O)C(=O)Nc1ccc(OC)cc1 (configuration not stated)	inactive: 8.81%
CSc1ncnc2c1ncn2CCCN1CCN(Cc2cccc3ccccc23)CC1	inactive: 18.8%
CCOC(=O)N1c2ccccc2Sc2ccccc21	inactive: 1.37%
COc1ccc(C(=O)N/N=C(\C)CC(=O)Nc2ccc(N(C)C)cc2)c(OC)c1	inconclusive: 58.2%
CCOC(=O)c1c(C)[nH]c(C(=O)N2CCN(CC)CC2)c1C	inactive: 2.01%
Cc1cc(C)n(CCc2nc(-c3ccco3)cs2)n1	inconclusive: 34.9%
COCCN(CC(=O)NCc1ccc(OC)cc1)C(=O)CCC(=O)Nc1nccs1	inactive: 9.76%
Cc1cc(OCCN2CCCC2)ccc1C(C)C	inconclusive: 35.4%
CN(C)c1ccc(Nc2nc(N)c([N+](=O)[O-])c(N3CCOCC3)n2)cc1	inconclusive: 77.6%
CCOc1ccc(C(=O)O)cc1OC	inactive: 5.02%
CN=C1C=C/C(=N/N=c2\ccn(O)cc2C)C=C1C	inconclusive: 34.5%
CCC(=O)Nc1ccc(N2CCCCC2)cc1	inconclusive: 32.1%
CCn1c(=O)n(CC)c2cc(N3CCCC3)c(NC(=O)c3ccccc3Br)cc21	inconclusive: 32.5%
O=c1c(-c2ccc(O)cc2)coc2cc(O)cc(O)c12	inconclusive: 36%
CN1CCN(CC(=O)Nc2ccccc2Sc2ccccc2)CC1	inconclusive: 34.8%
Oc1ccc(-c2nc3cnccn3c2Nc2ccc3c(c2)OCCO3)cc1	inconclusive: 81.8%
O=C(COc1ccccc1F)NC12CC3CC(CC(C3)C1)C2	inactive: 9.07%
CCN1CCN(CC(=O)Nc2ccc(OC(F)(F)F)cc2)CC1	inconclusive: 33.4%
CCN1CCN(CC(=O)Nc2c(OC)cccc2OC)CC1	inconclusive: 33.3%
COc1ccc(CNCCc2ccc([N+](=O)[O-])cc2)c(OC)c1OC	inactive: 25.1%
COc1cc(CN2CCCCCC2)cc(OC)c1OC	inconclusive: 32.4%
COc1cc(/C=C2/C(=O)NN(c3cccc(Cl)c3)C2=O)cc(OC)c1O	inconclusive: 32.7%

SMILES	inhibition
Nc1nc2ccc(N3CCOCC3)cc2s1	inconclusive: 113%
CN1CCN(Cc2cccc(Oc3ccccc3)c2)CC1	inactive: 4.23%
O=C(C1=C(O)C(=O)N(CCN2CCOCC2)C1c1ccccn1)c1cccs1 (configuration not stated)	inactive: 8.66%
Cc1oc2c(O)c(O)ccc2c(=O)c1-c1ccc(Cl)cc1	inconclusive: 35.6%
CSc1nnc(-c2nnc(SC)n2-c2ccccc2)n1-c1ccccc1	inactive: 5.06%
c1ccc2c(c1)Nc1cc3ccccc3cc1O2	inactive: -1.21%
CCn1c(SC(C)C)nnc1-c1c[nH]c2ccccc12	inactive: 7.88%
CC(=O)Nc1ccc(NC(=O)CN2CCN(c3ccccn3)CC2)cc1	inactive: 6.59%
COc1ccc(NC2CCCN(C(=O)c3ccncc3)C2)cc1 (configuration not stated)	inconclusive: 46.7%
COc1ccc(Br)cc1CN1CCN(c2ncccn2)CC1	inconclusive: 35.2%
O=[N+]([O-])c1cccc(CN2CCCCCC2)c1	inactive: 10.9%
Cc1cc(C)nc(SCc2ccc(C(=O)N/N=C/c3cccc(O)c3O)cc2)n1	inconclusive: 35.2%
CCC(=O)c1ccccc1OCCN1CCN(Cc2ccccc2)CC1	inconclusive: 34.6%
COc1cc(-c2cc(OC)c3c(C)oc(C)c3c(=O)c2)ccc1O	inconclusive: 33.2%
Oc1ccc(/C=N/NC(=S)N/N=C/c2ccc(O)cc2)cc1	inconclusive: 67.2%
O=C1C(Cl)=C(Oc2ccccc2)C(=O)c2ccccc21	inconclusive: 88.7%
N#CC1(NC(=O)COC(=O)c2ccc(-c3ccc(O)cc3)cc2)CCCCC1	inconclusive: 32.4%
COc1cc(/C=N/n2c(-c3ccccc3)n[nH]c2=S)cc(OC)c1O	inconclusive: 33.1%
CSc1nc2c(C)c(C)c(C)c(C)c2[nH]1	inactive: 2.42%
CC(C)(C)OC(=O)NN=C(c1ccc(O)cc1)c1ccc(O)cc1	inconclusive: 65.4%
CCN(CC)c1ccc(/C=N/NC(=O)Cc2cccs2)cc1	inactive: 18.5%
CN(C)c1ccc(NC(=O)c2cccc(N3C(=O)CCC3=O)c2)cc1	inconclusive: 59.4%
COc1ccc(N2CCN(C(=O)c3ccc4c(=O)n(Cc5ccc6c(c5)OCO6)c(=O)[nH]c4c3)CC2)cc1	inconclusive: 33.4%

SMILES	inhibition
O=C(NN1C(=O)/C(=C/c2ccc(O)c(O)c2)SC1=S)c1ccccc1	inconclusive: 58.7%
O=C(O)c1ccc(-n2cccc2/C=C2/SC(=O)N(CC(=O)N3CCCC3)C2=O)cc1	inconclusive: 35.8%
Cn1c(-c2ccc(F)cc2)cnc1NCc1cccc([N+](=O)[O-])c1	inconclusive: 35.2%
NC(=O)c1cc[n+](CC2=C(C(=O)O)N3C(=O)[C@@H](NC(=O)C(c4ccccc4)S(=O)(=O)[O-])[C@H]3SC2)cc1 (some centres not stated)	inconclusive: 81.2%
O=C1C=CC(=O)c2c(O)c(CO)c(CO)c(O)c21	inconclusive: 84.6%
COc1cc(/C(C)=N/NC(=O)CSc2nnc(C)s2)ccc1O	inconclusive: 90.4%
C/C(=N\NC(=S)NC1CCCCC1)c1ccc(O)cc1	inconclusive: 34.6%
CCOC(=O)CSC1=NC(=O)/C(=C/c2ccc(Br)cc2)S1	inactive: 19.4%
S=c1[nH]nc(-c2cccnc2)n1/N=C/c1ccccc1	inconclusive: 51.1%
CN(C)Cc1ccccc1Sc1ccc(O)cc1O	inconclusive: 37.1%
CSC(SC)=C(C#N)C(=O)c1ccccc1	inconclusive: 51%
CCN(CC(=O)NCCCn1ccnc1)S(=O)(=O)c1ccc(C)cc1	inactive: -8.53%
Cc1cc(=O)[nH]c(SCC(=O)Nc2ccccc2[N+](=O)[O-])n1	inactive: 6.16%
Cc1ccc(Nc2n[nH]c(=S)s2)cc1C	inconclusive: 32.6%
Cc1cc(Cl)ccc1OC(C)C(=O)OCC(=O)Nc1ccc2[nH]c(=O)[nH]c2c1 (configuration not stated)	inactive: 1.09%
CN(C)c1ccc(NC(=O)CN2CCC(O)(c3ccccc3)CC2)cc1	inconclusive: 42%
CC(C)(C)c1nc(N)nc(=O)[nH]1	inactive: 4.68%
COc1cc(/C=C/c2cc[n+](C)cc2)ccc1OCC(=O)Nc1ccc(Cl)c(Cl)c1	inconclusive: 51.5%
O=C(O)CC(C(=O)O)N1C(=O)/C(=C/c2ccc(-c3nc4ccccc4s3)o2)SC1=S (configuration not stated)	inconclusive: 53.5%
N#CC1(Nc2ccc(Br)cc2)CCCC1	inactive: 2.57%
CCOC(=O)CC(=O)CSc1nc2ccc(C)cc2cc1C#N	inconclusive: 29.1%
COc1ccc(Nc2ccc(Cl)cc2)c(C(=O)O)c1	inconclusive: 45.8%
C#CCOCCOCCOCCNc1nc(N2CCN(C(=O)CCCCCCCCCCNC(=O)[C@H]([C@@H](C)CC)n3cc(CCCCN=C(N)N)nn3)CC2)nc(N2CCN(C(=O)CCCCCCCCCCNC(=O)[C@H](CO)n3cc(CCCCCN)nn3)CC2)n1	inconclusive: 91.9%
